# Test results reported in the supplement of paper PMC10037445.
# The full ranking holds about 2,900 compounds; the median of “NF-kB SEAP reporter activity, fold change vs agonist alone” is about 0.99, and the highest 2% start at about 2.6. The list shows a part of the results.
# Experiments:
# [1] = test system: RAW-Dual; experiment: NF-kB SEAP reporter activity, fold change vs agonist alone; higher = enhanced NF-kB activity; conditions: library stock concentration (final ~1000-fold dilution): 10 mM
# Outline: (§1)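 Cytotoxic wells were those whose IncuCyte confluency was below 70% of agonist controls in both mask sets. The cells were RAW-Dual macrophages at 50,000 cells/well in DMEM on 384-well plates, dosed with 50 nL of library stock by pin tool, stimulated with a PRR agonist 1 h later, and kept at 37 °C, 5% CO2 for 20 hours. IRF and NF-κB reporter activity, as fold change over agonist-alone wells, came from supernatant read by QuantiLuc luminescence and QuantiBlue absorbance, respectively.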
# [2] = test system: RAW-Dual; experiment: NF-kB SEAP reporter activity, fold change vs agonist alone; cytotoxicity flag (confluency mask): not cytotoxic; higher = enhanced NF-kB activity
# Outline: as §1
# [3] = test system: RAW-Dual; experiment: NF-kB SEAP reporter activity, fold change vs agonist alone; cytotoxicity flag (confluency mask): cytotoxic (confluency <70% of control); higher = enhanced NF-kB activity
# Outline: as §1
# [4] = cytotoxicity flag (confluency mask): not cytotoxic, agonist: Imiquimod (TLR7) […]
# [5] = cytotoxicity flag (confluency mask): not cytotoxic, agonist: MPLA (TLR4) […]
# [6] = agonist: ODN 1826 (TLR9) 0.5 ug/mL
# [7] = agonist: Pam2CSK4 (TLR2/6) 0.1 ug/mL
# [8] = agonist: Pam3CSK4 (TLR2/1) 0.1 ug/mL
# [9] = cytotoxicity flag (confluency mask): cytotoxic (confluency <70% of control), agonist: Imiquimod (TLR7) […]
# [10] = cytotoxicity flag (confluency mask): cytotoxic (confluency <70% of control), agonist: MPLA (TLR4) […]
compound,measurement,setting,value
O=C(NCCO)c1cccc(-c2cc(Nc3ccc(OC(F)(F)F)cc3)ncn2)c1,NF-kB SEAP reporter activity,[1]; [4],1.09
same,NF-kB SEAP reporter activity,[1]; [5],1.23
O=C(CS(=O)Cc1ccco1)NC/C=C\COc1cc(CN2CCCCC2)ccn1 (stereo not given) (library stock concentration (final ~1000-fold dilution): 10 mM),NF-kB SEAP reporter activity,[2]; agonist: LPS (TLR4) 0.1 ug/mL,0.951
same,NF-kB SEAP reporter activity,[2]; [6],0.952
same,NF-kB SEAP reporter activity,[2]; [7],1.08
same,NF-kB SEAP reporter activity,[2]; [8],0.932
O=C(CS(=O)Cc1ccco1)NC/C=C\COc1cc(CN2CCCCC2)ccn1 (stereo not given),NF-kB SEAP reporter activity,[1]; [4],0.751
same,NF-kB SEAP reporter activity,[1]; [5],1.04
CC(C)COc1ccc(CNC(=O)N(Cc2ccc(F)cc2)C2CCN(C)CC2)cc1.CC(C)COc1ccc(CNC(=O)N(Cc2ccc(F)cc2)C2CCN(C)CC2)cc1.O=C(O)C(O)C(O)C(=O)O,NF-kB SEAP reporter activity,[1]; [9],0.496
same,NF-kB SEAP reporter activity,[1]; [10],1.23
CC(C)COc1ccc(CNC(=O)N(Cc2ccc(F)cc2)C2CCN(C)CC2)cc1.CC(C)COc1ccc(CNC(=O)N(Cc2ccc(F)cc2)C2CCN(C)CC2)cc1.O=C(O)C(O)C(O)C(=O)O (library stock concentration (final ~1000-fold dilution): 10 mM),NF-kB SEAP reporter activity,[3]; agonist: LPS (TLR4) 0.1 ug/mL,0.205
same,NF-kB SEAP reporter activity,[3]; [6],0.239
same,NF-kB SEAP reporter activity,[3]; [7],0.0981
same,NF-kB SEAP reporter activity,[3]; [8],0.143
CN1CCC(=C2c3ccccc3CCc3cccnc32)CC1.O=C(O)/C=C\C(=O)O.O=C(O)/C=C\C(=O)O (library stock concentration (final ~1000-fold dilution): 10 mM),NF-kB SEAP reporter activity,[2]; agonist: LPS (TLR4) 0.1 ug/mL,0.879
same,NF-kB SEAP reporter activity,[2]; [6],0.716
same,NF-kB SEAP reporter activity,[2]; [7],0.99
same,NF-kB SEAP reporter activity,[2]; [8],1.14
CN1CCC(=C2c3ccccc3CCc3cccnc32)CC1.O=C(O)/C=C\C(=O)O.O=C(O)/C=C\C(=O)O,NF-kB SEAP reporter activity,[1]; [4],1.12
same,NF-kB SEAP reporter activity,[1]; [5],0.904
CC1CCN(C(=O)CC#N)CC1N(C)c1ncnc2[nH]ccc12.O=C(O)CC(O)(CC(=O)O)C(=O)O (stereo not given),NF-kB SEAP reporter activity,[1]; [5],1.04
CC1CCN(C(=O)CC#N)CC1N(C)c1ncnc2[nH]ccc12.O=C(O)CC(O)(CC(=O)O)C(=O)O (stereo not given) (library stock concentration (final ~1000-fold dilution): 10 mM),NF-kB SEAP reporter activity,[2]; agonist: LPS (TLR4) 0.1 ug/mL,1.13
same,NF-kB SEAP reporter activity,[2]; [6],1.26
same,NF-kB SEAP reporter activity,[2]; [7],1.52
same,NF-kB SEAP reporter activity,[2]; [8],1.11
CN1C(=O)C(C)(C)Oc2c(-c3cn(C)c(=O)c4[nH]ccc34)cc(S(C)(=O)=O)cc21 (library stock concentration (final ~1000-fold dilution): 10 mM),NF-kB SEAP reporter activity,[3]; agonist: LPS (TLR4) 0.1 ug/mL,2.16
same,NF-kB SEAP reporter activity,[3]; [6],1.73
same,NF-kB SEAP reporter activity,[3]; [7],0.658
same,NF-kB SEAP reporter activity,[3]; [8],1.99
CN1C(=O)C(C)(C)Oc2c(-c3cn(C)c(=O)c4[nH]ccc34)cc(S(C)(=O)=O)cc21,NF-kB SEAP reporter activity,[1]; [9],1.56
same,NF-kB SEAP reporter activity,[1]; [10],2.34
CN(C)C/C=C/C(=O)Nc1cc2c(Nc3ccc(F)c(Cl)c3)ncnc2cc1OC1CCOC1.O=C(O)/C=C\C(=O)O.O=C(O)/C=C\C(=O)O (stereo not given) (library stock concentration (final ~1000-fold dilution): 10 mM),NF-kB SEAP reporter activity,[3]; agonist: LPS (TLR4) 0.1 ug/mL,0.206
same,NF-kB SEAP reporter activity,[3]; [6],0.178
same,NF-kB SEAP reporter activity,[3]; [7],0.258
same,NF-kB SEAP reporter activity,[3]; [8],0.158
